SMILES strings stand for the structures.

For this data set the following is noted: 0.001% w/v in methanol, 1 cm path length.

Regarding `Cc1ccc(C(=O)c2ccccc2)cc1` [Speedcure MBP, 4-methylbenzophenone], the “absorption maximum (band at 316 nm)” value is recorded as “non-existent”.

These data come from patent US10040893B2, “Polymeric photoinitiators and photoinitiator monomers” (Coloplast A/S, priority 2012, dated 2018).
